In PubChem BioAssay AID686978 (National Center for Advancing Translational Sciences (NCATS), 2013):
Out of some 420,000 compounds screened, about 64,000 (15%) were called active. Inconclusive means that the source gave no clear call. Such entries were picked first, then a sample of the others. The call rests on the fitted dose curve; in most records, active means well fitted inhibition curve with a large enough effect; inconclusive means small, poorly fitted or top-dose-only effect; inactive means flat fitted curve, though single readings scatter. Potencies of inconclusive entries are left out as doubtful fits.
On the % scale 0 is the no-effect control and ±100 the full control effect; potency means the concentration at half of the fitted maximal effect; tags describe the fitted curve by direction and shape.

Test: qHTS for Inhibitors of human tyrosyl-DNA phosphodiesterase 1 (TDP1): qHTS in cells in absence of CPT; further: nearly all actives have a fitted effect of over 55% in size
Conditions: DT40 Tdp1-/- hTDP1 cells, no CPT, ATP luminescence, 48 h; activity change, negative = growth inhibition: at 46.2 µM (top of the series)
Summary of the method: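 Stably hTDP1-transfected Tdp1-null chicken DT40 cells were treated with library compounds minus camptothecin and grown for at least 48 hr at 37 °C, after which cellular ATP was quantified by luminescence.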
In the case of COc1cc(C(=O)Nc2ccc(C(F)(F)F)cc2)ccc1OCC(=O)N1CCOCC1, the Potency is reported as inconclusive [inhibitor, partial curve]. For CCOc1ccc(CNC(=S)N/N=C/c2ccc(OC)c(OC)c2)cc1, the Potency was inconclusive [inhibitor, single point]. For COc1ccc(N2CCN(C(=O)CCc3ccc(S(=O)(=O)NCC(C)C)cc3)CC2)cc1, the Potency was inconclusive [inhibitor, partial curve]. In the case of CSc1nc(C)c2c(n1)N(c1ccc(F)cc1)CC2, the Potency is reported as inconclusive [inhibitor, single point]. In the case of Cc1ccc(NC(=O)N(Cc2ccco2)C(C)c2ccco2)cc1C (configuration not stated), the Potency is reported as active: 23.1 µM. For COC(=O)c1ccc(NC(=S)Nc2ccccc2)cc1, the Potency was inconclusive [inhibitor, single point]. With Cc1nn(Cc2ccccc2Cl)c2sc(C(=O)Nc3nccs3)cc12 the Potency was inconclusive [inhibitor, single point]. For COc1ccc(C(=O)C[n+]2cc(Br)cc(Br)c2)cc1, the Potency was “inactive”. For COc1ccc(NC(=O)COc2ccc3oc(=O)cc(C)c3c2)cc1, the Potency was inconclusive [inhibitor, partial curve]. With C=CCNc1nc(-c2ccccc2)nc(-n2ccnc2)n1 the Potency was inconclusive [inhibitor, partial curve]. With C(=C\c1ccccc1)/C=N/n1cnnc1 the Potency was inconclusive [inhibitor, single point]. For O=c1c2ccccc2nc(-c2ccc([N+](=O)[O-])cc2)n1O, the Potency was inconclusive [inhibitor, single point]. In the case of Cc1ccc2nc3n(c(=O)c2c1)-c1cc2ccccc2cc1C(=O)NC3Cc1ccc(O)cc1 (configuration not stated), the Potency is reported as “inactive”. With CC(NC(=O)/C=C/c1ccco1)c1nc2ccccc2n1Cc1cccc(Cl)c1 (configuration not stated) the Potency was inconclusive [inhibitor, single point]. For Cc1ccccc1C(=O)Nc1cccc(C(=O)OCc2cc(=O)n3c(C)csc3n2)c1, the Potency was inconclusive [inhibitor, single point]. For CCOC(=O)C1=C(NC(=S)NC(=O)c2ccccc2)c2ccccc2CC1(C)CC (configuration not stated), the Potency was inconclusive [inhibitor, single point]. For COCCN(CC1CCCN(C2Cc3ccccc3C2)C1)C(=O)c1cccc(C)c1 (configuration not stated), the Potency was inconclusive [inhibitor, single point]. For Nc1nc2ccccc2nc1N1CCCC1, the Potency was “inactive”. In the case of CC(=O)Nc1ccc(OCC(=O)NCCc2ccc(Cl)cc2)cc1, the activity change, negative = growth inhibition is reported as inconclusive: -30.3% [inhibitor]. For CCN(CC)CCC(c1ccc2c(c1)OCO2)c1c(OC)cc(OC)c2c(-c3ccccc3)cc(=O)oc12 (configuration not stated), the Potency was active: 20.6 µM. In the case of C#CCCC(=O)c1ccccc1/C=[N+](\[O-])c1ccccc1, the Potency is reported as inconclusive [inhibitor, single point]. In the case of Cc1cnc(C(=O)Nc2ccc(N3CCN(C(=O)OC(C)(C)C)CC3)cc2)cn1, the Potency is reported as active: 2.31 µM. In the case of CCC1(C)Cc2ccccc2-c2nc(-c3ccccc3)oc(=O)c21 (configuration not stated), the Potency is reported as inconclusive [inhibitor, single point]. In the case of Cc1ccc2[nH]c(=O)c(CN(CCCN3CCOCC3)Cc3nnnn3C3CCCC3)cc2c1, the Potency is reported as “inactive”. In the case of CCOc1ccc2oc(=O)cc(CN3CCN(C(=O)c4cccc(Cl)c4)CC3)c2c1, the Potency is reported as inconclusive [inhibitor, single point]. In the case of Cc1ccc(C)c(Nc2nn3c(=O)c4ccc(C(=O)N(C)Cc5ccccc5)cc4nc3s2)c1, the Potency is reported as active: 20.6 µM. In the case of O=C(c1cccc(F)c1)N1CCN(C(=O)c2nn3cccnc3c2Cl)CC1, the Potency is reported as “inactive”. With O=C1/C(=C/c2ccco2)N=C(N2CCCCC2)N1c1ccccc1 the Potency was active: 18.4 µM. For CCCCCC(=O)NC(=S)NC1C2CC3CC(C2)CC1C3 (configuration not stated), the Potency was inconclusive [inhibitor, single point]. In the case of CCOc1ccc(CCNC(=O)CSC(=S)N2CCCC2)cc1OCC, the Potency is reported as inconclusive [inhibitor, single point]. For Cn1nccc1C(=O)N1CCCC(N2CCN(Cc3ccc4c(c3)OCO4)CC2)C1 (configuration not stated), the Potency was “inactive”. For CCN(CC)S(=O)(=O)c1ccc(/C=C/C(=O)OCC(=O)N(C(C)C)C(C)C)cc1, the Potency was “inactive”. In the case of Cc1ccc(C)c(OCCCC(=O)NC2CCCCC2)c1, the Potency is reported as inconclusive [inhibitor, single point]. For N#C/C(=C(/O)Cc1cccc2ccccc12)c1nc2ccccc2s1, the Potency was inconclusive [inhibitor, single point]. In the case of CC[C@]12c3[nH]c4cc(-c5ccco5)ccc4c3CCN1C(=O)[C@@H](CC(=O)NC(C)(C)C)C[C@@H]2C(=O)N1CCN(C(=O)C2CC2)CC1, the Potency is reported as active: 20.6 µM. In the case of CCOc1ccccc1C1C(C(=O)OC)=C(N)OC2=C1C(=O)CCC2 (configuration not stated), the Potency is reported as “inactive”. With COc1ccc(OC)c(-c2ccnc(-n3ncc(C(=O)N(C)CCc4ccccn4)c3C)n2)c1 the Potency was “inactive”. With CC(=O)N1CCC2(CCCN(Cc3ccccc3)C2)CC1 the Potency was “inactive”. For O=C(CC(n1cncn1)C(Cl)(Cl)Cl)c1ccc([N+](=O)[O-])cc1 (configuration not stated), the Potency was active: 14.6 µM. For Cc1sc(N)c(C(=O)c2ccccc2)c1C, the Potency was inconclusive [inhibitor, single point]. With CCOC(=O)c1c(S(=O)(=O)N2CCN(c3ccc(F)cc3)CC2)c(C)n(C)c1C the Potency was “inactive”. In the case of Cc1cc(C(=O)NC(C)C2CCCO2)cs1 (configuration not stated), the Potency is reported as “inactive”. In the case of COc1cc(=O)n2c(c1C(=O)N(C)Cc1nonc1C)CCN(Cc1cccc(Cl)c1)CC2, the Potency is reported as “inactive”. With CCOc1[nH]n(-c2ccccc2)c(=O)c1C=Nc1ccc(F)cc1F the Potency was inconclusive [inhibitor, single point]. For Cc1ccc(-n2nc(-c3cccs3)cc2C(=O)NCC2CCCO2)c(C)c1 (configuration not stated), the Potency was inconclusive [inhibitor, single point]. With O=C(COc1ccccc1)NCC(=O)N/N=C/c1cc(Br)ccc1OCc1ccccc1 the Potency was active: 16.4 µM. For COc1ccc(N2CCN(C(=O)CCNC(=O)c3ccc(Br)cc3)CC2)cc1, the Potency was inconclusive [inhibitor, single point].
